Some of the results follow.
target: T1, MBP-FoxP1dN (Mus musculus, UniProt P58462 326-579); test: PD-seq (MBP pull-down with sequencing); 20 mM Tris-HCl pH 7.5, 100 mM NaCl, 1.5 mM MgCl2, 0.4 uM protein, 0.1 uM dsDNA library, 30 min, room temperature, amylose pull-down; high values mean tight binding; conditions: protein: recombinant; tags: His6-MBP; chain copies: 2; dsDNA, one strand shown
T1 sequence: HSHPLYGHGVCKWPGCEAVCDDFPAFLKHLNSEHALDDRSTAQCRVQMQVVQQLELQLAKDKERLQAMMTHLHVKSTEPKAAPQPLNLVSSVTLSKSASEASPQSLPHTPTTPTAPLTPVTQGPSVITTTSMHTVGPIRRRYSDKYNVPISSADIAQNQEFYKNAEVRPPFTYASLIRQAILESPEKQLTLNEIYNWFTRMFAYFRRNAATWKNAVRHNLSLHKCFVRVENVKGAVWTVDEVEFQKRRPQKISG
Outline: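 Binding is given as reads-per-million enrichment, pull-down over input, with replicates pooled. The bait was an N-terminus-lacking mouse FoxP3 or FoxP1 fragment with a His6-MBP tag, expressed in E. coli and used at 0.4 µM with 0.1 µM Klenow-filled degenerate double-stranded DNA library for 30 min at room temperature in Tris pH 7.5 buffer with NaCl and MgCl2. Amylose resin pull-down with three washes was followed by proteinase K release, PCR barcoding and Illumina sequencing.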

Row | Sequence | binding signal
1 | GATGATTGTTCTCCCAGCTGATGAATTAGGTGGATCGAGTAAACAAATTTTCCTAATCTTTCTGTTCAAGCGCCATCTAC | 0.865 RPM ratio (pull-down/input)
2 | GATGATTGTTCTCCCAGCTGATGAATTGACAAATTCGAGTAAACAAATTTTCCTAATCTTTCTGTTCAAGCGCCATCTAC | 1.53 RPM ratio (pull-down/input)
3 | GATGATTGTTCTCCCAGCTGATGAATTCAAATAGTCGAGTAAACAAATTTTCCTAATCTTTCTGTTCAAGCGCCATCTAC | 0.874 RPM ratio (pull-down/input)
4 | GATGATTGTTCTCCCAGCTGATGAATTAAAATTGTCGAGTAAACAAATTTTCCTAATCTTTCTGTTCAAGCGCCATCTAC | 0.999 RPM ratio (pull-down/input)
5 | GATGATTGTTCTCCCAGCTGATGAATTTGGTACCTCGAGTAAACAAATTTTCCTAATCTTTCTGTTCAAGCGCCATCTAC | 0.878 RPM ratio (pull-down/input)
6 | GATGATTGTTCTCCCAGCTGATGAATTGACCGTGTCGAGTAAACAAATTTTCCTAATCTTTCTGTTCAAGCGCCATCTAC | 0.91 RPM ratio (pull-down/input)
7 | GATGATTGTTCTCCCAGCTGATGAATTAAACGCGTCGAGTAAACAAATTTTCCTAATCTTTCTGTTCAAGCGCCATCTAC | 1.07 RPM ratio (pull-down/input)
8 | GATGATTGTTCTCCCAGCTGATGAATTAGACTCTTCGAGTAAACAAATTTTCCTAATCTTTCTGTTCAAGCGCCATCTAC | 0.952 RPM ratio (pull-down/input)
9 | GATGATTGTTCTCCCAGCTGATGAATTTTGCATGTCGAGTAAACAAATTTTCCTAATCTTTCTGTTCAAGCGCCATCTAC | 1.14 RPM ratio (pull-down/input)
10 | GATGATTGTTCTCCCAGCTGATGAATTTACCTTCTCGAGTAAACAAATTTTCCTAATCTTTCTGTTCAAGCGCCATCTAC | 1.15 RPM ratio (pull-down/input)
11 | GATGATTGTTCTCCCAGCTGATGAATTGCCTCCATCGAGTAAACAAATTTTCCTAATCTTTCTGTTCAAGCGCCATCTAC | 1 RPM ratio (pull-down/input)
12 | GATGATTGTTCTCCCAGCTGATGAATTACCTGCTTCGAGTAAACAAATTTTCCTAATCTTTCTGTTCAAGCGCCATCTAC | 0.939 RPM ratio (pull-down/input)
13 | GATGATTGTTCTCCCAGCTGATGAATTGGGGATCTCGAGTAAACAAATTTTCCTAATCTTTCTGTTCAAGCGCCATCTAC | 0.788 RPM ratio (pull-down/input)
14 | GATGATTGTTCTCCCAGCTGATGAATTCACTAGGTCGAGTAAACAAATTTTCCTAATCTTTCTGTTCAAGCGCCATCTAC | 0.888 RPM ratio (pull-down/input)
15 | GATGATTGTTCTCCCAGCTGATGAATTGATACACTCGAGTAAACAAATTTTCCTAATCTTTCTGTTCAAGCGCCATCTAC | 1.34 RPM ratio (pull-down/input)
16 | GATGATTGTTCTCCCAGCTGATGAATTTTAAGCATCGAGTAAACAAATTTTCCTAATCTTTCTGTTCAAGCGCCATCTAC | 1.08 RPM ratio (pull-down/input)
17 | GATGATTGTTCTCCCAGCTGATGAATTCTCACTATCGAGTAAACAAATTTTCCTAATCTTTCTGTTCAAGCGCCATCTAC | 1.02 RPM ratio (pull-down/input)
18 | GATGATTGTTCTCCCAGCTGATGAATTCTGTGATTCGAGTAAACAAATTTTCCTAATCTTTCTGTTCAAGCGCCATCTAC | 1.01 RPM ratio (pull-down/input)
19 | GATGATTGTTCTCCCAGCTGATGAATTTAATCCTTCGAGTAAACAAATTTTCCTAATCTTTCTGTTCAAGCGCCATCTAC | 0.908 RPM ratio (pull-down/input)
20 | GATGATTGTTCTCCCAGCTGATGAATTAAGGTCATCGAGTAAACAAATTTTCCTAATCTTTCTGTTCAAGCGCCATCTAC | 0.954 RPM ratio (pull-down/input)
21 | GATGATTGTTCTCCCAGCTGATGAATTAAAATCCTCGAGTAAACAAATTTTCCTAATCTTTCTGTTCAAGCGCCATCTAC | 0.808 RPM ratio (pull-down/input)

Row | Sequence | binding signal
22 | GATGATTGTTCTCCCAGCTGATGAATTAGCAAGGTCGAGTAAACAAATTTTCCTAATCTTTCTGTTCAAGCGCCATCTAC | 0.85 RPM ratio (pull-down/input)
23 | GATGATTGTTCTCCCAGCTGATGAATTCACGTTTTCGAGTAAACAAATTTTCCTAATCTTTCTGTTCAAGCGCCATCTAC | 0.926 RPM ratio (pull-down/input)
24 | GATGATTGTTCTCCCAGCTGATGAATTCAGTATGTCGAGTAAACAAATTTTCCTAATCTTTCTGTTCAAGCGCCATCTAC | 0.952 RPM ratio (pull-down/input)
25 | GATGATTGTTCTCCCAGCTGATGAATTCCTGCGGTCGAGTAAACAAATTTTCCTAATCTTTCTGTTCAAGCGCCATCTAC | 0.751 RPM ratio (pull-down/input)
26 | GATGATTGTTCTCCCAGCTGATGAATTTCAGCAGTCGAGTAAACAAATTTTCCTAATCTTTCTGTTCAAGCGCCATCTAC | 0.965 RPM ratio (pull-down/input)
27 | GATGATTGTTCTCCCAGCTGATGAATTCGATTCGTCGAGTAAACAAATTTTCCTAATCTTTCTGTTCAAGCGCCATCTAC | 0.905 RPM ratio (pull-down/input)
28 | GATGATTGTTCTCCCAGCTGATGAATTTAAAAGGTCGAGTAAACAAATTTTCCTAATCTTTCTGTTCAAGCGCCATCTAC | 0.788 RPM ratio (pull-down/input)
29 | GATGATTGTTCTCCCAGCTGATGAATTCTTCCGATCGAGTAAACAAATTTTCCTAATCTTTCTGTTCAAGCGCCATCTAC | 0.898 RPM ratio (pull-down/input)
30 | GATGATTGTTCTCCCAGCTGATGAATTGGCGGGATCGAGTAAACAAATTTTCCTAATCTTTCTGTTCAAGCGCCATCTAC | 0.831 RPM ratio (pull-down/input)
31 | GATGATTGTTCTCCCAGCTGATGAATTGACCACCTCGAGTAAACAAATTTTCCTAATCTTTCTGTTCAAGCGCCATCTAC | 0.86 RPM ratio (pull-down/input)
32 | GATGATTGTTCTCCCAGCTGATGAATTTTACGCTTCGAGTAAACAAATTTTCCTAATCTTTCTGTTCAAGCGCCATCTAC | 0.953 RPM ratio (pull-down/input)
33 | GATGATTGTTCTCCCAGCTGATGAATTGGACCGATCGAGTAAACAAATTTTCCTAATCTTTCTGTTCAAGCGCCATCTAC | 0.795 RPM ratio (pull-down/input)
34 | GATGATTGTTCTCCCAGCTGATGAATTCAGTTTCTCGAGTAAACAAATTTTCCTAATCTTTCTGTTCAAGCGCCATCTAC | 0.943 RPM ratio (pull-down/input)
35 | GATGATTGTTCTCCCAGCTGATGAATTGTCTAAATCGAGTAAACAAATTTTCCTAATCTTTCTGTTCAAGCGCCATCTAC | 1.3 RPM ratio (pull-down/input)
36 | GATGATTGTTCTCCCAGCTGATGAATTGTCATGATCGAGTAAACAAATTTTCCTAATCTTTCTGTTCAAGCGCCATCTAC | 1.12 RPM ratio (pull-down/input)
37 | GATGATTGTTCTCCCAGCTGATGAATTACGATTCTCGAGTAAACAAATTTTCCTAATCTTTCTGTTCAAGCGCCATCTAC | 1.03 RPM ratio (pull-down/input)
38 | GATGATTGTTCTCCCAGCTGATGAATTGCGGAAATCGAGTAAACAAATTTTCCTAATCTTTCTGTTCAAGCGCCATCTAC | 1.3 RPM ratio (pull-down/input)
39 | GATGATTGTTCTCCCAGCTGATGAATTAGCAAACTCGAGTAAACAAATTTTCCTAATCTTTCTGTTCAAGCGCCATCTAC | 0.989 RPM ratio (pull-down/input)
40 | GATGATTGTTCTCCCAGCTGATGAATTACACAGCTCGAGTAAACAAATTTTCCTAATCTTTCTGTTCAAGCGCCATCTAC | 1.1 RPM ratio (pull-down/input)
41 | GATGATTGTTCTCCCAGCTGATGAATTGTGAGCGTCGAGTAAACAAATTTTCCTAATCTTTCTGTTCAAGCGCCATCTAC | 1.03 RPM ratio (pull-down/input)
42 | GATGATTGTTCTCCCAGCTGATGAATTCCCCGCGTCGAGTAAACAAATTTTCCTAATCTTTCTGTTCAAGCGCCATCTAC | 0.891 RPM ratio (pull-down/input)

Row | Sequence | binding signal
43 | GATGATTGTTCTCCCAGCTGATGAATTCTCGTCTTCGAGTAAACAAATTTTCCTAATCTTTCTGTTCAAGCGCCATCTAC | 0.854 RPM ratio (pull-down/input)
44 | GATGATTGTTCTCCCAGCTGATGAATTAAATTATTCGAGTAAACAAATTTTCCTAATCTTTCTGTTCAAGCGCCATCTAC | 1.03 RPM ratio (pull-down/input)
45 | GATGATTGTTCTCCCAGCTGATGAATTCGGCTCATCGAGTAAACAAATTTTCCTAATCTTTCTGTTCAAGCGCCATCTAC | 0.763 RPM ratio (pull-down/input)
46 | GATGATTGTTCTCCCAGCTGATGAATTGTCGAGCTCGAGTAAACAAATTTTCCTAATCTTTCTGTTCAAGCGCCATCTAC | 0.901 RPM ratio (pull-down/input)
47 | GATGATTGTTCTCCCAGCTGATGAATTATGGCTGTCGAGTAAACAAATTTTCCTAATCTTTCTGTTCAAGCGCCATCTAC | 0.925 RPM ratio (pull-down/input)
48 | GATGATTGTTCTCCCAGCTGATGAATTCAAAGGGTCGAGTAAACAAATTTTCCTAATCTTTCTGTTCAAGCGCCATCTAC | 0.741 RPM ratio (pull-down/input)
49 | GATGATTGTTCTCCCAGCTGATGAATTGCCCAGTTCGAGTAAACAAATTTTCCTAATCTTTCTGTTCAAGCGCCATCTAC | 0.931 RPM ratio (pull-down/input)
50 | GATGATTGTTCTCCCAGCTGATGAATTTCAATGCTCGAGTAAACAAATTTTCCTAATCTTTCTGTTCAAGCGCCATCTAC | 0.9 RPM ratio (pull-down/input)
51 | GATGATTGTTCTCCCAGCTGATGAATTTTTTATTTCGAGTAAACAAATTTTCCTAATCTTTCTGTTCAAGCGCCATCTAC | 1.04 RPM ratio (pull-down/input)
52 | GATGATTGTTCTCCCAGCTGATGAATTTTGAGACTCGAGTAAACAAATTTTCCTAATCTTTCTGTTCAAGCGCCATCTAC | 0.862 RPM ratio (pull-down/input)
53 | GATGATTGTTCTCCCAGCTGATGAATTTTCTGTTTCGAGTAAACAAATTTTCCTAATCTTTCTGTTCAAGCGCCATCTAC | 0.977 RPM ratio (pull-down/input)
54 | GATGATTGTTCTCCCAGCTGATGAATTACGCAATTCGAGTAAACAAATTTTCCTAATCTTTCTGTTCAAGCGCCATCTAC | 1.16 RPM ratio (pull-down/input)
55 | GATGATTGTTCTCCCAGCTGATGAATTTGCCTATTCGAGTAAACAAATTTTCCTAATCTTTCTGTTCAAGCGCCATCTAC | 0.954 RPM ratio (pull-down/input)
56 | GATGATTGTTCTCCCAGCTGATGAATTCCCAAGTTCGAGTAAACAAATTTTCCTAATCTTTCTGTTCAAGCGCCATCTAC | 0.774 RPM ratio (pull-down/input)
57 | GATGATTGTTCTCCCAGCTGATGAATTTCCCAAGTCGAGTAAACAAATTTTCCTAATCTTTCTGTTCAAGCGCCATCTAC | 0.82 RPM ratio (pull-down/input)
58 | GATGATTGTTCTCCCAGCTGATGAATTGTAACAATCGAGTAAACAAATTTTCCTAATCTTTCTGTTCAAGCGCCATCTAC | 1.7 RPM ratio (pull-down/input)
59 | GATGATTGTTCTCCCAGCTGATGAATTCTTGGGTTCGAGTAAACAAATTTTCCTAATCTTTCTGTTCAAGCGCCATCTAC | 0.897 RPM ratio (pull-down/input)
60 | GATGATTGTTCTCCCAGCTGATGAATTATAGACTTCGAGTAAACAAATTTTCCTAATCTTTCTGTTCAAGCGCCATCTAC | 0.9 RPM ratio (pull-down/input)
61 | GATGATTGTTCTCCCAGCTGATGAATTTCCAGGCTCGAGTAAACAAATTTTCCTAATCTTTCTGTTCAAGCGCCATCTAC | 0.756 RPM ratio (pull-down/input)
62 | GATGATTGTTCTCCCAGCTGATGAATTCGAGCGATCGAGTAAACAAATTTTCCTAATCTTTCTGTTCAAGCGCCATCTAC | 0.833 RPM ratio (pull-down/input)
63 | GATGATTGTTCTCCCAGCTGATGAATTCACCCCGTCGAGTAAACAAATTTTCCTAATCTTTCTGTTCAAGCGCCATCTAC | 0.853 RPM ratio (pull-down/input)
